# Experimental data as given in PubChem BioAssay AID504832 (National Center for Advancing Translational Sciences (NCATS), 2011).
# In all, about 310,000 compounds went through this assay and about 18,000 (5.8%) were called active. This list was built around the results that the source calls inconclusive (neither active nor inactive); the mix of calls is not that of the screen. Calls come from the whole dose curve; as a rule, active = well fitted inhibition curve with a large enough effect; inconclusive = small, poorly fitted or top-dose-only effect, or another doubt; inactive = no such curve, though single readings can be large or run the other way. Potencies of inconclusive entries are left out as doubtful fits.
# Experiment: Primary qHTS for delayed death inhibitors of the malarial parasite plastid, 48 hour incubation
# Settings: P. falciparum luciferase growth in erythrocytes; series mostly up to 28.7 µM; activity change, negative = inhibition: at the top concentration
# Procedure, shortened: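 Here the parasites carry a stable luciferase gene and grow inside erythrocytes in Albumax-based RPMI medium with compound for one erythrocytic cycle. Activity is scored as loss of luminescent signal.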
# % is set by controls: 0 for no effect and ±100 for the full control effect; potency is the fitted concentration of half-maximal effect; tags give direction and shape of the fitted curve.
Structure (SMILES),Potency,"activity change, negative = inhibition"
CC(=O)c1sc(NC(=O)C2CCN(C(=O)c3ccc(F)cc3)CC2)nc1-c1ccccc1,"inconclusive [inhibitor, single point]",–
C/C(=N\NC(=O)CN(c1ccccc1Br)S(C)(=O)=O)c1ccc2c(c1)OCCO2,"inconclusive [inhibitor, single point]",–
CN(C)S(=O)(=O)c1ccc(N2CCCC2)c(C(=O)N2CCN(S(=O)(=O)c3cccc(F)c3)CC2)c1,active: 10.4 µM,–
CCCCOc1ccc2c(C)cc(=O)oc2c1OCCCC,"inconclusive [inhibitor, single point]",–
O=C(c1ccco1)N1CCN(c2ccc(F)cc2)CC1,–,inactive: 33%
COc1ccc2[nH]c3ccccc3c2c1,–,inactive: 8.93%
Cc1cccc(OCC(=O)NCC(=O)N/N=C/c2ccc(N(C)C)cc2)c1,"inconclusive [inhibitor, single point]",–
CCN(CC)CCNc1ncnc2c1sc1nc(N3CCOCC3)c3c(c12)CC(C)(C)SC3,"inconclusive [inhibitor, partial curve, poor fit]",–
COC(=O)c1cn(CCC#N)nc1-c1ccc2ccccc2c1,–,inactive: 15.9%
Cc1ccc(CSCC(=O)N(C)CC(=O)Nc2c(Cl)cccc2Cl)cc1,active: 10.4 µM,–
CC1=CC(=O)O[C@@H]1[C@@]1(C)C[C@H]2OC(=O)C[C@H]3[C@@H](C)C(=O)C(O)=C1[C@@]23CO,active: 13.1 µM,–
Cc1cc(Oc2ccccc2)nc(OCC#N)n1,–,inactive: 2.78%
CCn1c(=O)[nH]c(=O)c2c(N)c(C(=O)c3cc(F)ccc3F)sc21,"inconclusive [inhibitor, single point]",–
CCCCNC(=O)c1cn(CC)c2cc(N3CCN(C)CC3)c(F)cc2c1=O,"inconclusive [inhibitor, single point]",–
Cc1ccc(C(=O)N/C(=C/c2ccco2)C(=O)NCCc2c[nH]c3ccccc23)cc1,"inconclusive [inhibitor, partial curve, poor fit]",–
O=C(COc1ccc2c(-c3ccccc3)cc(=O)oc2c1)NCC(O)c1ccccc1 (stereo not drawn),–,inactive: 42.4%
O=C(c1cccc(C(F)(F)F)c1)N1CCOc2ccccc21,active: 13.1 µM,–
CCOc1ccc(NC(=O)C2CC(=O)N(CC)C(=Nc3ccc4c(c3)OCO4)S2)cc1 (stereo not drawn),"inconclusive [inhibitor, partial curve, poor fit]",–
O=C(O)C1CC=CCC1C(=O)Nc1ccc2c(c1)OCCO2 (stereo not drawn),–,inactive: 89.6%
COc1ccc(CNc2nc3nc4c(c(=O)n3[nH]2)CCC4)cc1,"inconclusive [inhibitor, full curve, poor fit]",–
CCS(=O)(=O)c1ccc2oc(SCC(=O)c3c(N)n(C4CC4)c(=O)[nH]c3=O)nc2c1,–,inactive: -4.95%
CC(C(=O)c1ccc(Br)cc1)[n+]1cccc(NC(=O)c2ccccc2)c1 (stereo not drawn),"inconclusive [inhibitor, single point]",–
COc1cccc(CN(C)C(=O)c2cccc(S(=O)(=O)N3CCN(Cc4ccccc4)CC3)c2)c1OC,"inconclusive [inhibitor, single point]",–

Structure (SMILES),Potency,"activity change, negative = inhibition"
Cc1ccc(/C=C/S(=O)(=O)NCCC(=O)NCc2ccc(F)cc2)cc1,"inconclusive [inhibitor, single point]",–
CCOC(=O)c1ccc(NC(=O)Nc2ccc(S(N)(=O)=O)cc2)cc1,"inconclusive [inhibitor, single point]",–
COc1cc(OC)cc(C(=O)NC(C(=O)Nc2ccc(N3CCOCC3)cc2)C(C)C)c1 (stereo not drawn),"inconclusive [inhibitor, single point]",–
Cc1ccc(C(C)C)c(OCC(=O)NNC(=O)C(C(C)C)N2C(=O)c3ccccc3C2=O)c1 (stereo not drawn),–,inactive: -19.1%
O=C(N/N=C/c1ccco1)C(O)c1ccccc1 (stereo not drawn),"inconclusive [inhibitor, full curve, poor fit]",–
O=C1CSC(c2ccc([N+](=O)[O-])cc2)N1c1ccc(O)cc1 (stereo not drawn),"inconclusive [inhibitor, partial curve, poor fit]",–
Cc1ccc(N(CN2C(=O)c3ccccc3C2=O)C(=O)c2ccc([N+](=O)[O-])cc2[N+](=O)[O-])cc1,–,inactive: 20.1%
COc1ccc(S(=O)(=O)NCC(c2cccnc2)N2CCN(c3ccc(F)cc3)CC2)cc1C (stereo not drawn),active: 4.65 µM,–
CC1(C)N=C(N)N=C(N)N1c1cccc(C(=O)O)c1,–,inactive: -7.96%
Cc1ccc(C(=O)NCC(=O)OC(C)C(=O)NC2CCCc3ccccc32)cc1 (stereo not drawn),–,inactive: 32.4%
COc1ccc(CN(C)C(C)C(=O)Nc2ccc(S(=O)(=O)N3CCCC3)cc2)c(OC)c1OC (stereo not drawn),active: 7.38 µM,–
COc1ccc(S(=O)(=O)c2c(N)n(Cc3ccco3)c3nc4ccccc4nc23)cc1,"inconclusive [inhibitor, single point]",–
CCCc1cc(=O)oc2c3c(c4c(c12)OC(C)(C)C=C4)OC(C)C(C)C3O (stereo not drawn),"inconclusive [inhibitor, partial curve, poor fit]",–
COCCN(CC(=O)NC1CCCCC1)C(=O)/C=C/C(=O)c1ccc(OC)cc1O,–,inactive: 16.2%
O=C1CN(C(=O)COC(=O)c2cccc(OCc3ccccc3)c2)c2ccccc2N1,"inconclusive [inhibitor, partial curve]",–
CCOC(=O)c1c(-c2ccccc2)c2cc(OC)ccc2n1CCCN(C)C,active: 9.28 µM,–
CSC1=NCCN1S(=O)(=O)c1ccccc1,–,inactive: 45.9%
CC1CCCN(Cc2cccc(Oc3ccccc3)c2)C1 (stereo not drawn),"inconclusive [inhibitor, single point]",–
N=c1c2ccccc2nnn1-c1cccc(C(F)(F)F)c1,active: 13.1 µM,–
CCOc1ccc(N(CC(=O)NCCSc2ccccn2)S(=O)(=O)c2ccc(Cl)cc2)cc1,"inconclusive [inhibitor, single point]",–
C=CCN1C(=O)c2ccc(C(=O)NCCc3ccc(OC)c(OC)c3)cc2C1=O,–,inactive: -20%
CCCOC(=O)C1=C(C)NC2=C(C(=O)C(C(=O)OC)C(C)C2)C1c1ccc(N(CC)CC)cc1 (stereo not drawn),"inconclusive [inhibitor, single point]",–
CCCCCCSc1cccc(-c2nc3cc(C)ccn3c2NC2CCCCC2)c1,active: 9.28 µM,–

Structure (SMILES),Potency,"activity change, negative = inhibition"
CN(C)S(=O)(=O)c1ccc2c(c1)nc(CCC(=O)Nc1ccc(N3CCOCC3)cc1)n2C,"inconclusive [inhibitor, partial curve]",–
CCC1=C(OC(=O)N(CC)CC)N2C(=O)OC(=NCC(=O)OC)[C@]2(C)[C@H]2C1=CC[C@H]1C(=O)NC(=O)[C@H]12,"inconclusive [inhibitor, single point]",–
COc1ccc(C(=O)c2ccc(N3CCN(C4CC(=O)NC4=O)CC3)cc2)cc1F (stereo not drawn),"inconclusive [inhibitor, single point]",–
CCCCc1ccc(NC2=NCC(=O)N2CCc2ccccc2)cc1,"inconclusive [inhibitor, partial curve, poor fit]",–
CCCCCCNC(=O)N[C@H](Cc1ccc(O)cc1)C(=O)NCCC[C@H]1CN2C(=NC[C@H]2CCC)N1CC1CCC1,active: 7.38 µM,–
NNC(=O)c1cccc(Cn2cc(Br)c([N+](=O)[O-])n2)c1,"inconclusive [inhibitor, single point]",–
CCc1ccc(NC(=O)COC(=O)CCC2CCCC2)cc1,"inconclusive [inhibitor, single point]",–
Cc1ccccc1OCC(=O)N/N=C/c1sc(=O)n(Cc2cccc(C(=O)O)c2)c1Cl,"inconclusive [inhibitor, single point]",–
CSCCC(NS(=O)(=O)c1ccccc1)C(=O)OCc1cc(=O)oc2cc(O)ccc12 (stereo not drawn),–,inactive: 35.2%
Cn1cc(C(=O)c2ccc(Cl)cc2)cc1-c1nc2ccccc2n1C,"inconclusive [inhibitor, single point]",–
COc1ccc(C(=O)O/N=C/c2ccc(S(=O)c3ccc(Cl)cc3)nc2)cc1 (stereo not drawn),"inconclusive [inhibitor, single point]",–
O=C(c1ccco1)N1CCN(Cc2nnc(-c3cccc(Cl)c3)o2)CC1,–,inactive: -8.29%
Cc1ccc2c(c1)cc1c(=O)n(CC(=O)N(C)c3ccccc3)nc(C)n12,"inconclusive [inhibitor, single point]",–
CC(C)(C)CN1C(N)=NC[C@H]1Cc1ccc(O)cc1,"inconclusive [inhibitor, partial curve, poor fit]",–
O=C(O)c1cc(NS(=O)(=O)c2cccc3nsnc23)cc(C(=O)O)c1,–,inactive: -4.21% [at 0.00184 µM]
CCOC(=O)C1=C(COC(=O)CCNS(=O)(=O)c2ccc(C)c(C)c2)NC(=O)NC1C (stereo not drawn),"inconclusive [inhibitor, single point]",–
CN(C)CCSc1nc(-c2ccccc2)nc2c1CCC2,–,inactive: -22.3%
COC(=O)C1=C(c2c(C)noc2C)C[C@@H]2CC[C@H]1N2C(=O)NCCOc1ccccc1,"inconclusive [inhibitor, single point]",–
Cc1c(C(=O)Nc2c(C)n(C)n(-c3ccccc3)c2=O)oc2ccc(Cl)cc12,–,inactive: 26.8%
CN(C)c1ccc(CN(CC2CCCO2)C(=O)c2cccs2)cc1 (stereo not drawn),"inconclusive [inhibitor, single point]",–
CCCCCn1c(=O)[nH]c2cc(C(=O)NCCCN3CCCCC3CC)ccc2c1=O (stereo not drawn),"inconclusive [inhibitor, full curve, poor fit]",–
C=CCn1c(-c2ccc([N+](=O)[O-])cc2)n[nH]c1=S,–,inactive: 1.57%
